Assay results published in the supplement of paper PMC3334620.
The full ranking holds about 33,000 sequences; the median of “E-score (-0.5 to 0.5)” is about -0.04, and the highest 2% start at about 0.36. This is one part of the list.

Target: T1, Hmlalpha2 (UniProt P0CY09)
T1 sequence: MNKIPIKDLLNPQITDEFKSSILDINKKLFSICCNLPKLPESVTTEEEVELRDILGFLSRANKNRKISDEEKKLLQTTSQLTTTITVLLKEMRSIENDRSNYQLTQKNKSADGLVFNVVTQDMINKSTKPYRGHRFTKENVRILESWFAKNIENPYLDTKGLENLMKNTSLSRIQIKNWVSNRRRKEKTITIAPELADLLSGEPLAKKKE
Assay: PBM E-score (8-mer binding enrichment) (E-score (-0.5 to 0.5)); higher = stronger / more preferred TF binding; most listed sequences are background and not binding sites
Details: protein concentration: 200 nM; construct: GST-full length
Procedure: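 Universal 'all 10-mer' protein binding microarrays (Agilent AMADID 015681) probed with GST-tagged S. cerevisiae TFs (full-length or DBD) made by in vitro transcription/translation (PURExpress), about 100-200 nM. Bound TF was detected with fluorescent anti-GST. Each ungapped 8-mer (which stands for itself and its reverse complement) is scored by the PBM enrichment score (E-score), a modified Wilcoxon-Mann-Whitney statistic from -0.5 to +0.5, computed with the Universal PBM Analysis Suite. Scale: above 0.35 generally sequence-specific binding.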

Row | Sequence | PBM E-score
1 | GAATTCCC | -0.114
2 | CCGAGAAA | -0.0488
3 | ATGCTGCC | -0.0923
4 | CTGTAGTC | -0.0729
5 | ACTAGCAG | -0.011
6 | AGCTCTAC | 0.0713
7 | AGGGTCAA | -0.0604
8 | CCAGCAGC | -0.245
9 | ATAAGTTA | 0.239
10 | GGTAATAC | 0.173
11 | GTCGTAAC | 0.175
12 | AGCCCTTA | -0.0743
13 | ACCGATAA | 0.0677
14 | GAAGCGCA | -0.198
15 | GCCTCTAC | -0.161
16 | ATAAAAGC | -0.0672
17 | TTACCAAA | 0.102
18 | AGTGGTTC | -0.0849
19 | GATGAGGC | -0.301
20 | ACGTCAGT | -0.158
21 | GACGTATA | 0.17
22 | CACGCCAA | 0.0728

Row | Sequence | PBM E-score
23 | CACGTCGG | 0.0248
24 | CAATCGGA | -0.0181
25 | CCTGTACG | 0.0613
26 | AGTGTCGG | -0.13
27 | CAGGCAGG | -0.0222
28 | AATCGTCA | 0.0586
29 | GCCCGCGC | -0.178
30 | ACCGTAGG | -0.178
31 | CACCCCTG | -0.137
32 | CCTATCCG | -0.315
33 | CGGCGACG | -0.128
34 | CGCGTTAA | 0.427
35 | AATCGTGA | -0.00694
36 | AGAAAAGG | -0.105
37 | ATAAACGG | -0.0499
38 | GATGATAC | -0.00858
39 | TACATACA | 0.443
40 | GCTAATAA | 0.0127
41 | ACGTTTTG | 0.134
42 | CGCGGTTA | 0.109
43 | CCGGTGAG | -0.226
44 | GTCTAAAA | 0.0507

Row | Sequence | PBM E-score
45 | GGCGAGCA | -0.257
46 | AAAGGTGA | -0.0525
47 | GGATTGCA | 0.00103
48 | GGGAGATA | -0.216
49 | CGAACACA | 0.209
50 | AGAGAATC | -0.114
51 | CCGATCGC | -0.0743
52 | AGTATGAT | 0.0934
53 | TCATCGAA | -0.0231
54 | GAGACGGA | -0.095
55 | TACCGTGA | -0.0306
56 | CTTACATC | 0.283
57 | ACTGTCAA | -0.0749
58 | ATGGTGCA | 0.0104
59 | CTTGAGTC | -0.141
60 | ATAGAGCG | -0.2
61 | ACTTCTCT | 0.0893
62 | CTGACTTA | 0.0614
63 | AATTGCCC | -0.175
64 | AGCAGGCT | -0.142
65 | CCAGAACG | 0.0593
66 | ATCGCCCG | -0.188

Row | Sequence | PBM E-score
67 | ACCGGTCA | -0.099
68 | GTACGCAC | 0.0802
69 | GAGTCCAA | 0.095
70 | CACTGGTA | -0.0231
71 | CCATCGTC | -0.277
72 | AATAGAAT | 0.0964
73 | GGTACACC | -0.0541
74 | ATCACTAG | -0.116
75 | TGACGGCA | -0.167
76 | CAACAGAC | 0.0475
77 | CTAGTCCC | -0.227
78 | AATGTACT | 0.186
79 | ACGGCTCG | -0.0132
80 | GTCAACAC | 0.358
81 | CAGAAAAC | 0.177
82 | CAGCTGTA | -0.117
83 | TATTCGAA | -0.114
84 | CACCGGTA | -0.143
85 | ATCGGTGA | 0.0663
86 | ATTACCGA | 0.0482
87 | AGTCCACG | -0.172
88 | CACATTCG | 0.135

Row | Sequence | PBM E-score
89 | AGATTATC | -0.206
90 | AATGCTCA | -0.0253
91 | CTCCCTAA | -0.0306
92 | CCGTTATC | -0.145
93 | AGCGAAGG | -0.149
94 | ACAATCAA | 0.206
95 | GACGGAGC | -0.322
96 | CCCTAGCG | -0.313
97 | AAATGATG | 0.117
98 | AACGACAA | 0.224
99 | CCGCTTTA | 0.151
100 | ATAGATTA | 0.151
101 | GCCCGAAA | -0.0843
102 | GCCGTCCA | -0.114
103 | CATCGCAG | -0.129
104 | GGGTGTTA | 0.195
105 | AGACGCTG | -0.0863
106 | CTTTCCGA | -0.189
107 | ATGACCGC | -0.164
108 | CGCGAACA | 0.116
109 | AATTGCTC | -0.247
110 | ACTGATCA | 0.0649
